According to paper PMC4336329 (PLoS ONE, 2015):
In all, about 310,000 compounds went through this assay and about 14,000 (4.5%) showed an effect of 50% or more. Effects have a minus sign here. The list shows a part of the results.

target: human ether-à-go-go-related gene (hERG) potassium channel (human, UniProt Q12809); assay: primary screen, population patch clamp on CHO cells stably expressing hERG
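Also: peak tail current of the secondary pulse compared with the same well before compound.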

human ether-à-go-go-related gene (hERG) potassium channel, sequence (Q12809 whole entry, looked up): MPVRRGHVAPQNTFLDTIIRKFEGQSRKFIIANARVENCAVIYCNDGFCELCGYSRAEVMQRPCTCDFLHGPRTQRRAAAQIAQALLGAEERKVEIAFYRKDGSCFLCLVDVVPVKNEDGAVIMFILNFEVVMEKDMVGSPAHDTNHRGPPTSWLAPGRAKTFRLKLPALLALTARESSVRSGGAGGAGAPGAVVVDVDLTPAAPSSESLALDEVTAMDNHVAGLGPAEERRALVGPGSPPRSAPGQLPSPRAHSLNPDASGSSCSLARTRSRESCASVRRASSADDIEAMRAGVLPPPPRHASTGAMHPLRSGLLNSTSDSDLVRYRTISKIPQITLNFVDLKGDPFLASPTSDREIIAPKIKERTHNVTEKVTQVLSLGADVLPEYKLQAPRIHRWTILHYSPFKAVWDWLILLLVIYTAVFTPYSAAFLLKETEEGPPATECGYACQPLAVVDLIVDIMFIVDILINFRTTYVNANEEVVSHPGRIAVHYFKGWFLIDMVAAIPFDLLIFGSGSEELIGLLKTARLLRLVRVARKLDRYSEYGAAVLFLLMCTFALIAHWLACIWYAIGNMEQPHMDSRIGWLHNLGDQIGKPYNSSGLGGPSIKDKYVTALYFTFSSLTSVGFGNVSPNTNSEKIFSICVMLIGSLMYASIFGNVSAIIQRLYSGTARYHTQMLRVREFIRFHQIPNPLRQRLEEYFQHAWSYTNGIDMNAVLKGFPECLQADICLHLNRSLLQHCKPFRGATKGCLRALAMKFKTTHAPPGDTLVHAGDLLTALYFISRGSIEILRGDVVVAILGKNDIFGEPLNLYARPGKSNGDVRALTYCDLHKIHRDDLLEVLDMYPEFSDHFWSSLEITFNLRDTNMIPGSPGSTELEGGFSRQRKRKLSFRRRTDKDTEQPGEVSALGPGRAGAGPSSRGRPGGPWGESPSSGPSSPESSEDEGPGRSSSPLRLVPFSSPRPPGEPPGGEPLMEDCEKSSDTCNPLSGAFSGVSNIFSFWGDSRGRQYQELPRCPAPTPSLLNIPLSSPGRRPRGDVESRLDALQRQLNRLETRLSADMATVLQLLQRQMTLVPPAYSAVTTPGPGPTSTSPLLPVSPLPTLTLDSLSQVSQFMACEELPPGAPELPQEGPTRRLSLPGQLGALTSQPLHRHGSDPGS

Row | SMILES | hERG current change (%, negative = inhibition) at 10uM
1 | COC(=O)CCSCC(=O)N1N=C(c2ccc(Br)cc2)CC1c1cccc(OC)c1OC (stereo not shown) | 9.64%
2 | O=C(CN1CCCN(Cc2ccc(F)cc2)S1(=O)=O)NC1CCCC1 | 5%
3 | COC(=O)c1sc2nc(CSc3ccc(Br)cc3)[nH]c(=O)c2c1C | 10%
4 | Cn1c(SCc2nnc(-c3ccc(F)cc3)o2)nnc1C1COc2ccccc2O1 (stereo not shown) | -60.9%
5 | COCCN(C(=O)Nc1ccccc1)c1ccccc1 | 2.3%
6 | CC1=Nc2ccccc2/C1=C\c1sc(Nc2ccc(C)cc2)nc1O | -1.36%
7 | Cc1cccc(OCC(=O)N(C)CCc2ccccn2)c1 | -7.66%
8 | O=C(C(c1ccccc1)c1ccccc1)N1CCN(Cc2ccncc2)CC1 | -35.4%
9 | CCCOn1c(OCC(C)C)nc2ccccc2c1=O | -1.01%
10 | Cc1nc(-c2cccc(NC(=O)c3cc4cc(Br)ccc4oc3=O)c2)cs1 | -0.364%
11 | CCCN1C(=O)c2cc(C(=O)NC3CCCC3)ccc2C1O (stereo not shown) | -2.01%
12 | COc1ccc(-n2nnc3c(=O)n(CC(=O)N4CCCCC4)cnc32)cc1 | 1.8%
13 | Cc1c(NC(=O)c2ccccc2NC(=O)c2ccccc2)cccc1C(=O)O | 21.4%
14 | FC(F)(F)c1nc2ccccc2n2c(-c3ccc(Cl)cc3)nnc12 | 5.64%
15 | NS(=O)(=O)c1ccc(CCNC(=O)CCc2nc3ccccc3s2)cc1 | -6.61%
16 | Cc1ccc(NC(=O)C2C3CCCC2C3c2ccccc2)cc1C (stereo not shown) | 2.25%
17 | O=C1C2C3C=CC(C3)C2C(=O)N1c1ncn[nH]1 (stereo not shown) | 14.7%
18 | O=C(c1cccc(S(=O)(=O)N2CCOCC2)c1)N(Cc1nnc(-c2ccccc2Cl)o1)C1CC1 | -24.9%
19 | CCOc1ccc(NS(=O)(=O)c2ccc(NC(=O)c3ccccn3)cc2)cc1 | 9.85%
20 | CCCCn1c(N)c(N(CCOC)C(=O)c2cc(-c3ccc(F)cc3)nc3ccccc23)c(=O)[nH]c1=O | 5.56%
21 | O=C(CSc1n[nH]c(=O)[nH]c1=O)NC1CCCCC1 | 12.1%
22 | CC(C)c1nc2cc(C(=O)N3CCNC(=O)C3c3cccc(F)c3)ccc2o1 (stereo not shown) | 3.09%
23 | Cc1ccc(S(=O)(=O)N2CCN(C(=O)CSc3nnc(-c4ccco4)o3)CC2)cc1 | -24.3%
24 | Cc1ccc(S(=O)(=O)N2CCN(CCNC(=O)C(=O)Nc3ccc(F)cc3)CC2)cc1 | 2.09%
25 | Cc1nnc(NC(=O)CSc2ncc(-c3ccccc3)[nH]2)s1 | 2.94%
26 | CCc1cc(C(=O)N2CCCC(CO)(Cc3ccc(F)cc3)C2)n(C)n1 (stereo not shown) | -9.49%
27 | CC(=O)c1[nH]c(C)c(C(=O)N2CCCC(Nc3cccc(F)c3)C2)c1C (stereo not shown) | 21.2%
28 | Cc1cc(NC(=O)CCl)n(-c2nc3ccccc3s2)n1 | 9.06%

Row | SMILES | hERG current change (%, negative = inhibition) at 10uM
29 | CCOC(=O)c1cc(NC(=O)Nc2nc3ccccc3s2)c(C)nc1C | 13%
30 | COc1ccc(C2C(C(=O)NCCCN3CCOCC3)c3ccccc3C(=O)N2c2ccc(OC)cc2)cc1 (stereo not shown) | -0.81%
31 | CC(C)(C)OC(=O)NCc1ccc(CNC(=O)c2nc[nH]c2C(=O)N2CCN(c3ccccc3)CC2)cc1 | -18.9%
32 | COc1ccc(CNCCCSc2ncccn2)c(OC)c1.Cl | -11.6%
33 | CCn1c(O)c(C2=c3ccccc3=NC2=O)c2cc(Br)ccc21 | 4.24%
34 | COc1cccc(OCCn2cc(/C=N/NC(=O)c3ccncc3)c3ccccc32)c1 | -8.35%
35 | COc1cc(C(=O)c2ccccc2Cl)c([N+](=O)[O-])cc1OC | -21%
36 | CC(NC(=O)CSc1nc2ccccc2c(=O)n1CCCO)c1ccccc1 (stereo not shown) | -13.7%
37 | CC(=O)C1=C(O)CCC1=N | 0.578%
38 | Cc1ccc2nc(NC(=O)COC(=O)c3ccncc3)sc2c1 | -20.6%
39 | CC(=O)Nc1ccc(NC(=O)CC23CC4CC(CC(C4)C2)C3)cc1 | 11.4%
40 | CCOC(=O)C(=CNc1ncccc1C)C(=O)OCC | 1.51%
41 | Cc1ccc(-n2c(O)c(/C=N/NC(=O)c3ccncc3)c(=O)[nH]c2=O)cc1C | 9.71%
42 | CCOc1ccc(-n2cnnn2)cc1S(=O)(=O)Nc1c(C)cccc1C | -19.4%
43 | O=C1CN(C(=O)c2ccco2)C(c2ccccc2)c2cc(Cl)ccc2N1 (stereo not shown) | -27.8%
44 | CCc1nn(CC(=O)NCCc2ccc(S(N)(=O)=O)cc2)c(=O)c2cc3sccc3n12 | 20.1%
45 | Cc1ccc(Nc2nc(N)c([N+](=O)[O-])c(NCc3ccccc3)n2)cc1 | 12.1%
46 | Cc1n[nH]c(C)c1CCC(=O)N/N=C/c1c[nH]c2ccccc12 | -26.2%
47 | COc1ccccc1NC(=O)c1nn(C)c(C(=O)Nc2ccccc2OC)c1[N+](=O)[O-] | 17.6%
48 | CN(C)C(CNC(=O)c1cc(S(=O)(=O)N(C)c2ccccc2)ccc1Cl)c1cccs1 (stereo not shown) | -33.5%
49 | CCN(CC(=O)Nc1c(F)cccc1F)C(=O)CCN1C(=O)c2cccc([N+](=O)[O-])c2C1=O | 16.2%
50 | O=C1CCc2cc(S(=O)(=O)NC(Cc3ccccc3)C(=O)NCC3CCCO3)ccc2N1 (stereo not shown) | 19.5%
51 | CSc1nnc(N2C(=O)C(O)=C(C(=O)c3ccc(C)o3)C2c2ccc(C)cc2)s1 (stereo not shown) | 4.28%
52 | Cc1ccc(-c2cn(S(=O)(=O)c3cccc([N+](=O)[O-])c3)nc2N)cc1 | 15.3%
53 | O=C(CSc1nnc(C2CC2)n1C1CC1)c1ccccc1F | -7.69%
54 | COC(=O)N/N=C(\C)c1ccc(Br)cc1 | 11.6%
55 | CC1(C)CC(=O)C=C(NC2=CC3OC(c4ccccc4)OCC3OC2=O)C1 (stereo not shown) | -0.196%
